Assay results as given in the supplement of paper PMC10126150.
Sequences with one replicate were seen in a single cluster, so their values are uncertain.

tested on: ATP; assay: switch fluorescence ratio, 500 uM ATP over buffer (Cy3 cluster intensity, sum of 5 cycles each) (fold (ratio)); higher = stronger signal-on switching upon ATP binding; sequences stand for … in TCGTCGGCAGCGTCAGATGTGTATAAGAGACAGTTTTTTTTTTTTTTTTTTTTTTTTT…TC; settings: aptamer strand: ATP DNA aptamer (quencher-CACCTGGGGGAGTATTGCGGAGGAAGG + anchor), 100 nM annealed; ATP concentration: 500 uM; one replicate
Method in brief: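 Switching-strand clusters labelled with Cy3 on a modified Illumina MiSeq flow-cell were annealed to 100 nM quencher-labelled ATP aptamer, imaged in selection buffer, and re-imaged after 15 min with 500 uM ATP at 22 °C. This was done over five cycles with NaOH stripping and re-annealing in between. The fluorescence ratio is summed target-cycle over summed buffer-cycle Cy3 intensity per cluster, averaged per switch-domain sequence, excluding clusters outside 100-1000 RFU.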
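Further: ATP exposure 15 min at 22 °C before imaging.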

Row | Sequence | switch fluorescence ratio
1 | TACTTTTGAG | 1.06
2 | GCTTCATTTG | 1
3 | CCCCATGACT | 1.05
4 | TTACACTTCT | 1.05
5 | GAGCAGTATA | 1.04
6 | CGGCAAATAT | 1.83
7 | CGCAGGTAAA | 1.02
8 | TGGAAACAAG | 1.11
9 | GCTTAAGCCA | 1
10 | ACTAGCTAGT | 0.988
11 | AACTCCGTGG | 1.09
12 | GTTTTATTCA | 0.945
13 | CGCTGATAGG | 1.02
14 | TGGCTTACAC | 1.04
15 | ATTACGTGC | 1.01
16 | CGCTTGGACG | 0.979
17 | GGTTATCGGG | 0.986
18 | GTGAGTGACC | 0.95
19 | TCAGAGAGAT | 0.982
20 | CCGGCAGTTG | 1.15
21 | GGTTGTGAAA | 1.05
22 | GCGAAGGGCT | 1.01
23 | TTAGTAAC | 0.99
24 | TAAAGTTTG | 0.992
25 | CGATTGGCGA | 1.03
26 | GATTTTGA | 0.946

Row | Sequence | switch fluorescence ratio
27 | TGTTGTATAC | 0.994
28 | TTTGTAGTCT | 0.999
29 | AAGAAATAGG | 0.987
30 | AATAAGTATG | 1
31 | GGGAAGTTAT | 1.03
32 | GTCTGACTTC | 1.02
33 | ATTATATGGC | 0.961
34 | GTTGAACATG | 0.983
35 | GGGCTTTAAC | 0.975
36 | ATTTTAAG | 1
37 | TCATTGAGAA | 0.974
38 | AGTAGGGAGG | 0.944
39 | GGTGCCCGAG | 1.01
40 | TTCATATATC | 0.952
41 | TAGTCTATAT | 0.997
42 | TTACGAACGG | 1.48
43 | AGGCTTAGCC | 0.991
44 | CAAGATAGAT | 1
45 | GGGCTGAGGT | 0.982
46 | CCATACACGC | 1.19
47 | ACAGCGCGAG | 1.02
48 | AGGATGTTTC | 0.988
49 | TCCGATTTTG | 0.998
50 | GCCAGAATAG | 1.02
51 | AATGTGACCA | 0.965
52 | CACTGCAGGC | 1.6

Row | Sequence | switch fluorescence ratio
53 | GGGGTCAGAA | 0.963
54 | CCGGTCCTTG | 1.01
55 | GGACGGTCAT | 1.03
56 | CCAAGGCTT | 1.13
57 | ACCATTCTGC | 0.935
58 | GGCGGTCATA | 0.998
59 | ATTTTGGAAT | 1.05
60 | GACGGGCTAC | 1.92
61 | GGCAAATATT | 0.986
62 | CTAGTTGCTG | 0.995
63 | GACCTCGGCT | 1.09
64 | CTAAGCTCGA | 1.05
65 | GGACTTGAGC | 1.02
66 | GTGCGTCCGC | 1.08
67 | TCACCAATCG | 0.988
68 | ACATAGGTTT | 0.993
69 | GTCTGGGAGC | 0.953
70 | AGTCTACCCT | 1.07
71 | CTCGAATCGG | 1
72 | GAGTATGAGG | 0.981
73 | GACCGAGAAT | 1.03
74 | ACAAGGAAAA | 1.05
75 | GGAATTAGTA | 1.01
76 | GAATTCCTTA | 1.02
77 | GAATATAGCG | 0.953
78 | AGGTCCTATT | 0.986

Row | Sequence | switch fluorescence ratio
79 | GACCCTGCTT | 0.972
80 | TGCAGATGTC | 0.948
81 | CAGTGCCGGT | 0.999
82 | AAACCCGTGG | 1.01
83 | GGAGGCTAAA | 1.02
84 | GGGCTGTCGA | 1.03
85 | TTCAGTTA | 1
86 | TGCTCACAGA | 1.03
87 | GAACTTGGCA | 1.05
88 | TGGGGCATTG | 1
89 | GAAAGGGTAA | 0.966
90 | TTTATCAAAT | 1.05
91 | ACGTTTTCGC | 1.02
92 | TCATACGGGC | 1.09
93 | TGGATCCATA | 0.967
94 | ATGCTGACCG | 1.01
95 | CTAGCTAGCG | 0.989
96 | GCCGTGTGGG | 1.03
97 | CGCCAAGGCC | 1.02
98 | CATCTTAGGC | 1.01
99 | TCATCTTTCT | 1.01
100 | TTCTCTGGTT | 1.15
101 | GGCACGTGGT | 0.993
102 | GCTTTACGAT | 1.13
103 | ATAAACCTCG | 1.08
104 | ATATGGGTCG | 0.958

Row | Sequence | switch fluorescence ratio
105 | GGGTCGAACT | 0.961
106 | AATTGGGGCC | 0.947
107 | AAGTCATCTC | 0.965
108 | CTCACGATCG | 1.03
109 | TCCGCTGGTA | 1.18
110 | TTGGTTGCTC | 0.978
111 | TGGCACCGCT | 1.01
112 | TCCACGGAGC | 1.06
113 | CTCCCGGGC | 1.41
114 | TATTGATTG | 0.979
115 | GACGGTTTTG | 1.01
116 | TGCCTTTGAG | 1.01
117 | TGACGGTGG | 1.04
118 | CTCGCTGAAA | 1.01
119 | TCGTCATGA | 0.959
120 | CCTGAGAAAC | 1.04
121 | AGAAAACGGT | 0.946
122 | CTCCTCGGTC | 1.6
123 | ATGCCTGCTG | 1.02
124 | GCACGCCAGG | 1.98
125 | AACGTTCAAG | 1.01
126 | TATGCTGCTT | 1
127 | TAAGTGTGCA | 0.994
128 | AGCTCAATGA | 0.976
129 | GCCTAGGGCG | 0.986
130 | GTGCGTAGGG | 1

Row | Sequence | switch fluorescence ratio
131 | CTGGGGTAA | 1
132 | TCGCATAGTA | 1.03
133 | GTAAGTCGTT | 0.985
134 | TTCCAATATT | 1.89
135 | GGCTCCCATG | 1.07
136 | ACTAAGAATA | 1.04
137 | TAATTGTCCC | 1.01
138 | AGGGTACACA | 0.968
139 | GATATGCATG | 0.987
140 | AGATGATGTC | 0.939
141 | TTACACATCT | 0.995
142 | ATGACTGGGG | 0.95
143 | AATAATACCT | 1.48
144 | GGATGAGAGA | 1.01
145 | TATTAGTACC | 1.03
146 | ACCAGCGTTT | 1
147 | TTGAGAGGCT | 0.984
148 | TGGGGCGCAA | 2.86
149 | ATACACGAC | 1.2
150 | TCTAAGAGAG | 1.04
151 | TAATGGTACT | 1.09
152 | AGAATATGGC | 1.03
153 | GACGAGAAAT | 1.74
154 | AGCCTTATCG | 1.01
155 | ATCTAAGTAC | 1.32
156 | GACATCGGAG | 0.984

Row | Sequence | switch fluorescence ratio
157 | TCAGTGGTTC | 1.01
158 | AGCGGATTAT | 0.982
159 | AAGTCGGCAA | 1.37
160 | TGGTATTTCT | 0.923
161 | CCAGAATACG | 1.41
162 | AGCTTCGTGT | 0.995
163 | ACGAGGTCGA | 1.02
164 | GTCGCCTTC | 1.05
165 | CGGTGCATGC | 1.31
166 | TAATGCTATG | 0.958
167 | TGATCTTAGT | 1.03
168 | AACCGAGTGT | 0.997
169 | GCAAATGAGG | 0.957
170 | ACCGCGTAAT | 1.07
171 | CGGTTGTATC | 0.935
172 | GATGCTCC | 3.13
173 | CTTGGGTAGA | 1.02
174 | AGTTGCACTG | 0.956
175 | CGAAAGTTGG | 0.964
176 | CCTTCGGCGG | 1.27
177 | GGGTTACCTT | 1.16
178 | GGTATTCGTA | 0.958
179 | ACAGAGGCGT | 0.995
180 | TGTATCTGCG | 1
181 | TTATTTTTAC | 0.983
182 | GGTACACGCC | 1.06

Row | Sequence | switch fluorescence ratio
183 | GCCTACGGAG | 1.07
184 | CATTGTCTGA | 0.959
185 | GATTCATAGG | 0.982
186 | TAGGGTCTTA | 1.02
187 | GTTTCAGAAT | 0.973
188 | CGGGCGTATT | 1.01
189 | CGAACACGGA | 0.976
190 | ACAGGTTTCA | 0.998
191 | CGTTTCTTA | 0.98
192 | GGGGTGGCG | 0.942
193 | TAAACGCTT | 1.01
194 | GGCACATTTC | 1.02
195 | GCAAAGAGT | 1.02
196 | AAGTATCAAA | 1.03
197 | GAGATTGATA | 1.17
198 | GCACGGGATC | 1.06
199 | CCCTCTGTCT | 1.03
200 | TAGGGCAAGG | 0.992
201 | TTAGAGGAA | 0.984
